# Experimental data: PMC4336329 (PLoS ONE, 2015)
# The campaign covered roughly 310,000 compounds. About 2,200 (0.71%) showed an effect of 50% or more. Effects have a minus sign here. The list shows a part of the results.
# Target: human ether-à-go-go-related gene (hERG) potassium channel (human, UniProt Q12809)
# Assay: primary screen, population patch clamp on CHO cells stably expressing hERG
# human ether-à-go-go-related gene (hERG) potassium channel, sequence (Q12809 whole entry, looked up): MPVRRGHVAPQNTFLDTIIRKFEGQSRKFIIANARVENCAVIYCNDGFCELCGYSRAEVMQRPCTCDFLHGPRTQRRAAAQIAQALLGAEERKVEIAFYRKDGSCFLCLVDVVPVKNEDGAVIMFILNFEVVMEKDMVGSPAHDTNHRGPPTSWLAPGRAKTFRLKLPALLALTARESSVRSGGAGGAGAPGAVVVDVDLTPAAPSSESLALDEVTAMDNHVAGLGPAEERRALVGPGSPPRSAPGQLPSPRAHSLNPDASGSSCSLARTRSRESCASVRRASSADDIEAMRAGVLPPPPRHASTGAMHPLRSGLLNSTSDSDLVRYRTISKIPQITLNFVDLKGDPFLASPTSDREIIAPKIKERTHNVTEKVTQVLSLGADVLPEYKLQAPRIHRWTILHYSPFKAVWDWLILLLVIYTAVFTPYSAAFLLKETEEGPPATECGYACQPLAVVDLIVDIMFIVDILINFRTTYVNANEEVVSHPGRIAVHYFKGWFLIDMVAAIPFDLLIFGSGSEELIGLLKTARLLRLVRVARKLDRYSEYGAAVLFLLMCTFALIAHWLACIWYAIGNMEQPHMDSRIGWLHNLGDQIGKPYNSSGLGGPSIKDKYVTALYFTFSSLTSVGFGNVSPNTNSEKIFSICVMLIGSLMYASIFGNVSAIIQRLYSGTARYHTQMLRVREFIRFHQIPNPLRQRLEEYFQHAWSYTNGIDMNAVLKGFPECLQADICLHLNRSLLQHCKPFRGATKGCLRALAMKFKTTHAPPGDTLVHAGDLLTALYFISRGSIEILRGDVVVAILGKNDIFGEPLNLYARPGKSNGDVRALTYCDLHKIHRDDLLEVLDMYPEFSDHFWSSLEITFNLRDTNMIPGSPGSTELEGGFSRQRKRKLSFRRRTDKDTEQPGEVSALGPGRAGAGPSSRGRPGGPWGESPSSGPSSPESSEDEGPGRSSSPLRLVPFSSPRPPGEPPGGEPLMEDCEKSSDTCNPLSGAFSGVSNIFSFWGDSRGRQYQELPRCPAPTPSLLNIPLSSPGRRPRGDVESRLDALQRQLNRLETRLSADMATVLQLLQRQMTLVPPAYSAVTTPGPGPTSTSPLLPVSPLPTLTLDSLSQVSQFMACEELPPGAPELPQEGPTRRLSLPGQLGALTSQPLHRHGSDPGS
row,Compound,"hERG current change (%, negative = inhibition) at 1uM [%]"
1,COc1cc(NC(=O)c2cc(-n3cnnc3)ccc2Cl)cc(OC)c1,9.49
2,O=C(Nc1cc(Cl)ccc1N1CCOCC1)C1=COCCO1,2.9
3,O=C(NCc1ccccc1)C1=C[C@H](c2csc3ccccc23)C[C@H](OCCCCO)O1,0.004
4,COCCNC(=O)c1ccc2c(c1)S(=O)(=O)c1ccccc1C2=O,11.3
5,N#C/C(=C\c1c(Cl)cccc1Cl)c1nc2ccccc2[nH]1,24.3
6,Cc1cccc(C(=O)OCC(=O)N2CCCCCC2)c1,6.63
7,CC1(C)OC(=O)N(Cc2ccco2)C1(C)O (stereo not drawn),12.6
8,COc1ccc(C(=O)NC(=S)NCC2CCCO2)cc1 (stereo not drawn),17.2
9,Cc1cc2nc(-c3ccc(SCc4ccc(C#N)cc4)nc3)[nH]c2cc1C,1.91
10,CC(C)(C)n1ncc2c(=O)n(Cc3ccc(Cl)cc3Cl)cnc21,12.5
11,CC(OC(=O)Cc1n[nH]c(=O)c2ccccc12)C(=O)Nc1cc(Cl)cc(Cl)c1 (stereo not drawn),-12.4
12,O=C(Nc1ccccc1Cl)C1CCCN1C(=O)OCc1ccccc1 (stereo not drawn),23.1
13,Cc1ccc(C)c(CNc2ccc(S(=O)(=O)N3CCCCC3)cc2)c1,12.1
14,CC(C)(C)C(=O)c1cnc(Nc2ccccc2Cl)s1,13.1
15,COc1ccc(-n2c(COc3cccc4ccccc34)nnc2SC(C)C(=O)O)cc1 (stereo not drawn),9.31
16,COc1cccc(-c2nnn(C/C(N)=N/O)n2)c1,9.43
17,COc1ccc2c(CCNC(=O)c3ccco3)c[nH]c2c1,3.65
18,CC(CCc1ccc(O)cc1)NC(c1ccccc1)c1ccc(Cl)cc1 (stereo not drawn),20.5
19,CCC1Oc2ccccc2N(CC(=O)N2CCOCC2)C1=O (stereo not drawn),16.3

row,Compound,"hERG current change (%, negative = inhibition) at 1uM [%]"
1,CNC(=O)NC(=S)NC(=O)c1ccc(OC)cc1,-1.75
2,COc1ccc(N(C(=O)CNC(=O)c2ccco2)C(C(=O)NCC2CCCO2)c2ccccc2)cc1OC (stereo not drawn),13.9
3,COc1ccc(-c2nc3ccccc3c(C(=O)Nc3ccc(S(=O)(=O)Nc4cc(C)on4)cc3)c2C)cc1,-4.11
4,O=C(CSc1nnc(-c2ccccc2Br)o1)N1CCOCC1,15.1
5,CC(=O)Nc1ccc(OCC(O)Cn2c3ccccc3c3ccccc32)c(C)c1 (stereo not drawn),13.3
6,O=C(O)c1cc([N+](=O)[O-])ccc1NCc1ccccn1,17
7,CC1(C(=O)O)CCC(C(=O)Nc2ccc(OC(F)(F)Cl)cc2)C1(C)C (stereo not drawn),17.7
8,CCCN1C[C@H](CSC)C[C@@H]2c3cccc4[nH]cc(c34)C[C@H]21.CS(=O)(=O)O,-7.58
9,CCn1c(SCC(N)=O)nnc1-c1ccco1,7.9
10,Cc1nc(-c2ccc(S(=O)(=O)NCc3ccccn3)s2)cs1,8.08
11,CCCCCn1c(SCc2ccncc2)nc2cc(C(=O)NCc3ccco3)ccc2c1=O,-6.94
12,CN1C(=O)NC(=O)/C(=C\c2ccc([N+](=O)[O-])o2)C1=O,11.3
13,CSc1ccccc1OCc1cc(C(=O)N2CCN(Cc3nccn3C)CC2)no1,-8.58
14,CC(=O)NC(=S)Nc1ccc(S(=O)(=O)Nc2nc(C)cc(C)n2)cc1,18.6
15,CCCc1nc2ccccc2c(=O)n1-c1ccccc1OC,1.56
16,Cc1ccccc1N1C(S)=C(C#N)C(=O)NC1c1ccco1 (stereo not drawn),-1
17,CCOc1ccc(S(=O)(=O)N2CCC(C(=O)NCC3CCCO3)CC2)cc1Cl (stereo not drawn),11.9
18,CCc1ccc(CN(C)C(=O)C2CCC(=O)N(Cc3ccccn3)C2)cc1 (stereo not drawn),3.02
19,CC1(C)CC2CC(C)(CN2C(=O)COC(=O)c2cncc(Br)c2)C1 (stereo not drawn),-0.246

row,Compound,"hERG current change (%, negative = inhibition) at 1uM [%]"
1,O=S(=O)(Nc1ccc(OC(F)F)cc1)c1ccc(-c2ccon2)s1,10.4
2,O=C(N1CCN(Cc2ccc3c(c2)OCO3)CC1)C(Cl)(Cl)Cl,8.58
3,CCCCC(CC)C(=O)Nc1ccccc1C#N (stereo not drawn),6.71
4,O=S(=O)(NCCC1=CCCCC1)c1ccc(F)cc1,9.44
5,O=C(Nc1ccccc1N1CCOCC1)c1csc2c1CCCC2,9.91
6,O=C(COC(=O)c1ccccc1Cl)Nc1ccc2[nH]c(=O)[nH]c2c1,6.39
7,CCOC(=O)C1(CCOC)CCN(Cc2ccccc2-c2ccco2)CC1,1.38
8,CSCCC1NC(=O)NC1=O (stereo not drawn),1.76
9,O=C1CCCC2=C1C(c1ccc3c(c1)OCO3)c1c([nH]n(-c3ccccc3)c1=O)N2 (stereo not drawn),9.33
10,O=C(NC1CCSC1=O)c1ccc(Oc2cccc(C(F)(F)F)c2)nc1 (stereo not drawn),-4.49
11,CCOc1cc(N2CCOCC2)c(OCC)cc1NC(=O)c1ccccc1,11.3
12,CCCc1nc2nc(C)c(NS(=O)(=O)c3ccc([N+](=O)[O-])cc3)c(=O)n2[nH]1,9.6
13,CCc1ccc(Nc2nnc(SCC(=O)Nc3cccc(S(=O)(=O)NC4=NCCCCC4)c3)s2)cc1,14.9
14,COc1ccc(CCNC(=O)[C@@H](NC(=O)N2CC(=O)Nc3ccccc32)C(C)C)cc1OC,9.65
15,Cc1ccc(-n2ncc3c(=O)n(-c4ccc(C)c(C)c4)c(-c4ccco4)nc32)cc1,-0.87
16,COc1cccc(NC(=O)CN(C)C(=O)c2cc3c(s2)CCCCC3)c1,9.34
17,COc1ccc(OCCCC(=O)Nc2ccc(N3CCCCC3)cc2)cc1.Cl,1.11
18,Cc1cc(S(=O)(=O)N2CCCOC2CNC(=O)C(=O)NCc2cccs2)ccc1F (stereo not drawn),13.7
19,CCC(CC)COC(=O)C1=C(C)NC(=O)NC1c1ccc(N(C)C)cc1 (stereo not drawn),21.5
